Experimental data: PubChem BioAssay AID651568 (National Center for Advancing Translational Sciences (NCATS), 2012)
The campaign covered roughly 1,200 compounds. About 55 (5%) were called active. Roughly 15% stayed inconclusive and do not appear here. Calls follow the shape of the dose curve; as a rule, active = well fitted inhibition curve with a large enough effect; inconclusive = small, poorly fitted or top-dose-only effect; inactive = no such curve, though single readings can be large or run the other way. Some of the results follow.

assay: qHTS Assay to Find Inhibitors of Chronic Active B-Cell Receptor Signaling: Hit Validation in Renilla Reporter Assay; conditions: TMD8 IkB-Renilla luciferase reporter, NF-kB signaling; series mostly up to 57.5 µM; activity change, negative = inhibition: at the top concentration; also: nearly all actives have a fitted effect of over 70% in size
Outline: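 Orthogonal secondary test of primary-screen hits in ABC-DLBCL cells carrying constitutively expressed IkB-Photinus and Renilla luciferase reporters, read by Dual-Glo luminescence; luciferases differ from the primary assay's click beetle enzymes, to exclude assay-specific artifacts.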
% is scaled to controls: 0 for no effect and ±100 for the full control effect.

Activity change, negative = inhibition, inactive:
COCCCNC(=O)C(=O)Nc1ccc2c(c1)N(S(=O)(=O)c1cccs1)CCC2 -3.29%, CCN(CC(=O)Nc1cc(Cl)ccc1C)C(=O)C1CC1 -0.258%, COc1cccc(-c2cc(=O)c3cc(NC(=O)c4ccc(N(C)C)cc4)ccc3[nH]2)c1 -13.2%, Cc1ccc(-c2oc3ncnc(N)c3c2-c2ccc(C)cc2)cc1 -2.78%, OCC1OC(n2cnc3c(NC4CCCCC4)ncnc32)C(O)C1O (stereo not given) -20.3%, CNC(=S)N/N=C/c1ccc(N2CCOCC2)s1 -2.21%, COc1ccc2c(c1)C(C)=CC(C)(C)N2S(=O)(=O)c1ccc(Br)cc1 -22.8%, COC(=O)C1CC23C=CCN4CCC5(c6ccccc6NC15C2C)C43 (stereo not given) -11%, CCOc1ccc(S(=O)(=O)N(CC(=O)NN=C2CCN(C)CC2)c2ccc(C)cc2)cc1 -0.0775%, CCOC(=O)c1[nH]c(C)c(C(=O)N2CCc3ccccc32)c1C -6.3%, CCOC(=O)c1[nH]c2c(c1C)C(=O)CC(c1ccc(F)cc1)C2 (stereo not given) 8.44%, CCCCOc1ccccc1NC(=O)Cn1c(-c2nonc2N)nc2ccccc21 -11.1%, O=C(O)c1ccc(CSc2nnc(-c3ccco3)o2)cc1 1.63%, COc1ccc(CC(=O)OCC(=O)c2c[nH]c3ccccc23)cc1 4.58%, COc1ccc(/C=N/NC(=O)c2[nH]c3ccc(C)cc3c2-c2ccccc2)c(C(=O)O)c1OC -1.16%, CCOc1ccccc1NS(=O)(=O)c1ccc(-c2cnc(C3CC3)o2)cc1 -5.07%, CCOc1cc(CNc2ccc3c(c2)OCCO3)cc(Br)c1OCC -3.09%, N#CC1=C(N)Oc2cc(N)ccc2C1c1cccc(Br)c1 (stereo not given) -21.5%, Cc1ccc(/C=N/NC(=O)C2COc3ccccc3O2)s1 (stereo not given) -2.31%, Cn1cccc1/C=C1\SC(=Nc2ccc(O)cc2)NC1=O -4.1%, COc1c(Br)cc(Br)cc1/C=N/NC(=O)c1cccnc1 0.885%, COc1ccc(N(CC(=O)NC2CCCC2)C(=O)Cn2nnc(-c3ccc(OC)c(OC)c3)n2)c(OC)c1 27.8%, CCCC(=O)Nc1ccc2c(c1)nc(CN1CCN(C(=O)OCC)CC1)n2CC -1.03%, OC(C#Cc1ccccn1)c1cccs1 (stereo not given) -3.19%, Cc1cccc(NC(=S)NNC(=O)CCn2cc(C)cn2)c1 6.59%, CCOc1ccc(NCc2ccccc2OCc2cccc(F)c2)cc1 -20.1%, C[C@]12CCC(=O)C=C1CC[C@@H]1[C@@H]2[C@@H](O)C[C@@]2(C)[C@H]1CC[C@]2(O)C(=O)CO 4.8%, COc1cc2c(cc1OC)C1=CC(=O)C(=O)N1C(C)(C)C2 -15%, Cc1ccc(C(=O)Nc2ncc(Cc3ccc(SC(F)F)cc3)s2)cc1 -18.5%, COc1cc(OC)cc(C(=O)NCC(=O)N2CC=C(c3ccccc3)CC2)c1 1.29%, COC(=O)C1=C(C)NC(C)=C(C(=O)OC)C1c1ccc(N(C)C)cc1 9.69%, Cc1cccc(N(C)S(=O)(=O)c2ccc(-c3cc(C)no3)s2)c1 1.15%, COc1cc2nc(=S)n3[nH]c(CCn4nc(C)cc4C)nc3c2cc1OC 1.16%, Cn1c(=S)[nH]c2c(c1=O)C(C)(C)Cc1ccccc1-2 -9.7%, COc1ccc(-c2cccc(-c3cc(=O)oc4cc(OC)cc(OC)c34)c2)cc1 -0.209%, Cc1ccccc1NC(=S)NCc1ccc2[nH]c3c(c2c1)CCCC3 8.57%, C=CCNC(=S)N/N=C/c1ccc(C(F)(F)F)cc1 3.98%, COc1cc(OC)c2c(=O)cc(-c3cccnc3)oc2c1 -16.1%, CC(/C=N/NC(=O)c1cc(-c2ccncc2)nc2ccccc12)=C\c1ccco1 -17.6%, COc1ccc(C(=O)N[C@H](C(=O)Nc2nc3ccccc3[nH]2)C(C)C)cc1 -9.83%, Cc1ccc2[nH]c(C(=O)N/N=C/c3ccccc3C(=O)O)c(-c3ccccc3)c2c1 -19.8%, COc1ccccc1/C=N/NC(=S)Nc1cccnc1 -2.9%, CN[C@H]1CCc2cc(OC)c(OC)c(OC)c2-c2ccc(N(C)CC(OC)OC)c(=O)cc21 -0.175%, CSc1nc(N(C)NC(=O)c2cccc(C)c2)c2ccccc2n1 -1.88%, CSc1nc(SCC(=O)NCc2ccco2)c2c3c(sc2n1)COC(C)(C)C3 -0.354%, Cc1ccccc1C(=O)N1CCC(C(=O)N2CCN(Cc3ccc4c(c3)OCO4)CC2)CC1 2.03%, O=C(Cc1cccs1)N/N=C/C=C/c1ccco1 9.19%, CC[C@]12c3[nH]c4cc(CCC(=O)N(C)C)ccc4c3CCN1C(=O)[C@@H](CC(=O)NCC13CC4CC(CC(C4)C1)C3)C[C@@H]2C(=O)N1CCN(C(=O)c2ccco2)CC1 -5.47%, CCOc1ccccc1OCC(=O)N/N=C(\C)Cc1ccc(OC)cc1 0.674%, O=C(CSc1cccc[n+]1[O-])c1ccccc1Br -12.4%, Cc1cccc(C(=O)N[C@H](C(=O)Nc2nc3ccccc3[nH]2)C(C)C)c1 -18.3%, CNC(=S)N/N=C(\C)c1cccc([N+](=O)[O-])c1 4.54%, COc1cc(C(=O)NNC(=S)Nc2ccc(S(N)(=O)=O)cc2)cc(OC)c1OC 2.08%, CCCC(=O)Nc1ncnc2c1ncn2[C@@H]1O[C@@H]2COP(=O)(O)O[C@H]2[C@H]1OC(=O)CCC -0.82%, CC(C)(CNC(=O)CO/N=C1/C=C2CCC3C(C(O)C[C@@]4(C)C3CC[C@]4(O)C(=O)CO)[C@@]2(C)CC1)C(O)C(=O)O (stereo not given in full) 5.62%, CC(C)c1ccc(/C=N/NC(=O)c2ccccc2Cl)cc1 4.09%, COc1cc(C(=O)N/N=C/c2cc([N+](=O)[O-])cs2)cc(OC)c1OC 7.09%, CCOC(=O)C(C)Oc1cccc2c(=O)n(CC(=O)NCc3ccco3)ccc12 (stereo not given) -13.8%, Cc1ccc(NC(=S)N/N=C/c2c(Cl)cccc2Cl)c(C)c1 17.3%, COc1ccccc1-c1nnc2n1N=C(c1ccc(O)c(O)c1)CS2 -15.3%, COc1ccc(OCCOC(=O)c2[nH]c(C)c(C(C)=O)c2C)cc1 7.23%, COc1ccc(C2CC(c3ccc(OC)c(OC)c3)=NN2C(=O)c2ccccc2)cc1 (stereo not given) -1.47%, Cc1[nH]n(C(N)=S)c(=O)c1N=Nc1ccc2ccccc2c1 -24.7%, COc1cc(/C=C2/S/C(=N/S(=O)(=O)c3ccccc3)NC2=O)c([N+](=O)[O-])cc1OC 14.5%, COc1ccccc1NC(=O)N1CCC(c2nc3cc(C)c(C)cc3[nH]2)CC1 -25.1%
